From ChEMBL document CHEMBL4888484, “Replenishing the malaria drug discovery pipeline: Screening and hit evaluation of the MMV Hit Generation Library 1 (HGL1) against asexual blood stage Plasmodium falciparum ,using a nano luciferase reporter read-out” (2022) come the findings set out here.

The % Inhibition is the relative decrease from the control value, in per cent.

The whole screen tested about 150,000 compounds, of which about 540 (0.36%) showed an effect of 50% or more. Some of the results follow.

The assay has as its system Plasmodium falciparum. In words: Primary screen in NF54 nanoGlo assay, in single point, at 2uM, 72h; a lower Z score goes with more inhibition. Particulars: timepoint 72 hour. Format: functional, Erythrocyte.
In the case of `CCCn1cc(NC(=O)N2CCC[C@]2(C)Cc2cccs2)cn1`, the “% Inhibition” value was 16% and the Z score is given as -1.82.

For `O=C(NC1CC1)N1CC2OCCN(Cc3ccccc3)C2C1` (stereo not drawn), the “% Inhibition” value was found to be 2% and the Z score was -0.25.

`O=C(c1cn[nH]c1)N1CCC[C@H]1c1nnc(C2CCOCC2)[nH]1`: the “% Inhibition” value is on record as -11% and the Z score is reported as 2.08.

In the case of `O=C(C[C@@H]1CCNC[C@@H]1Cc1cc(COc2ccccc2)on1)NCc1cccnc1`, the “% Inhibition” value is listed as 2% and the Z score is on record as -0.39.

For `COc1ccc(CCNc2cc(C)nc3c(C)c(-c4ccccc4)nn23)cc1OC`, the “% Inhibition” value is listed as -12% and the Z score is 2.3.

On to `COc1nc(C)c(NC(=O)OC(C)(C)C)s1`, for which the “% Inhibition” value stood at 10% and the Z score is on record as -1.42.

As to `Cc1cccc(O)c1NC(=O)c1scnc1C1CC1`, the “% Inhibition” value is 6% and the Z score is listed as -0.66.

`Cc1nc(-c2cc(S(=O)(=O)N3CCc4ccccc4C3)c(C)s2)sc1C`: the “% Inhibition” value is reported as -11% and the Z score is recorded as 1.31.

For the compound `O[C@H](CN1CCOCC1)Cn1cnc2ccccc21`, the “% Inhibition” value came out at 33% and the Z score is -3.79.

With `C[C@@H](Cn1ccnc1)C(=O)N1CCC(Cc2cc(F)ccc2F)CC1`, the “% Inhibition” value was -4% and the Z score is given as 0.71.

Regarding `CC[C@H]1CN(CCn2cc(CNCc3ccccc3C)c(C)n2)CCO1`, the “% Inhibition” value is reported as 0% and the Z score is reported as -0.05.

Regarding `O=C(O)[C@H]1CCCN(C2CCN(Cc3ccccc3)CC2)C1`, the “% Inhibition” value is reported as -13% and the Z score worked out at 1.5.

As for `Cn1ccnc1-c1ccc(C(=O)NC2CCOCC2)cc1`, the “% Inhibition” value is given as -12% and the Z score came to 1.16.

Consider `CCOc1ncccc1CNC(=O)N1CCC(c2ccc3cccnc3n2)CC1`, for which the “% Inhibition” value was -9% and the Z score came out at 1.01.

For `Cc1n[nH]c(C)c1CC(=O)Nc1ccc2c(c1)CCC2`, the “% Inhibition” value is listed as -1% and the Z score is listed as 0.12.

As for `CC(C)O[C@H]1CN(Cc2ccc(Cl)o2)C[C@@H]1O`, the “% Inhibition” value is reported as 1% and the Z score is reported as -0.19.

Regarding `Cc1cc(CN(C)C2CCN(c3ncc4ccc(F)cc4n3)CC2)no1`, the “% Inhibition” value was determined as 2% and the Z score is listed as -0.22.

Turning to `O=C(NCCN1CCOCC1)c1nnc(-c2ccncc2)o1`, the “% Inhibition” value was -2% and the Z score came out at 0.32.

`c1ccc(-c2nnc([C@H]3CCN(Cc4ccc5c(c4)OCO5)C3)o2)cc1`: the “% Inhibition” value is listed as -13% and the Z score came out at 1.69.

As to `CCc1cc(Cl)ccc1NC(=O)NC[C@@H]1C[C@H](F)CN1`, the “% Inhibition” value worked out at 5% and the Z score is listed as -0.6.

`CC(=O)N1CCCN(S(=O)(=O)c2ccc(F)cc2F)CCNC(=O)[C@@H]2CCC[C@@H]21`: the “% Inhibition” value is on record as 35% and the Z score is -3.92.

As to `CC(C)(C)C(=O)N1CCC(CN(CC(N)=O)C2CCCC2)CC1`, the “% Inhibition” value was -2% and the Z score stood at 0.17.

As for `CC(C)Cc1ccc(CN2C[C@@H]3CC[C@H]2CN(C)C3)s1`, the “% Inhibition” value was -3% and the Z score stood at 0.56.

For the compound `CNC(=O)C1CCCC1NC(C)C(=O)NCc1cccs1` (stereo not drawn), the “% Inhibition” value is recorded as -9% and the Z score is 0.83.

Take `Cc1cn(C)nc1CNC[C@](C)(O)C1CC1`: the “% Inhibition” value came to 21% and the Z score is listed as -2.65.

As for `COCCOCCN(C)CCCc1ccc(OC)cc1`, the “% Inhibition” value was -7% and the Z score worked out at 0.59.

For the compound `Cc1ccc(NC(=O)c2cc(=O)[nH]c3ccccc23)nc1`, the “% Inhibition” value was -11% and the Z score is 1.65.

As for `C=CCOCCN[C@@H](C)c1cccc(O)c1`, the “% Inhibition” value amounted to 3% and the Z score is reported as -0.42.

For `COc1cc(C(=O)N2CCC(OCC3CCCC3)CC2)ncn1`, the “% Inhibition” value is -21% and the Z score is on record as 2.86.

With `Cc1nc(N2CCc3noc(N)c3C2)ccc1C#N`, the “% Inhibition” value was -4% and the Z score was determined as 0.81.

For the compound `CCC[C@H]1CN(Cc2cc3ccccc3n2C)C[C@@H]1NS(C)(=O)=O`, the “% Inhibition” value is -4% and the Z score is on record as 0.83.

Consider `COCCN(CCOC)C(=O)c1ccccc1F`, for which the “% Inhibition” value is given as 7% and the Z score is -0.91.

Turning to `O=C(COc1ccnc(C(F)(F)F)c1)NCc1ccccc1F`, the “% Inhibition” value is 34% and the Z score is on record as -3.85.

Turning to `C[C@]1(O)C[C@@H](NS(=O)(=O)c2cc(Br)c(F)cc2F)C1`, the “% Inhibition” value was -5% and the Z score is recorded as 0.61.

For the compound `O=C(c1cccs1)N1CCC(NCCc2nc(C3CC3)no2)CC1`, the “% Inhibition” value is 13% and the Z score is given as -2.02.

Take `CCCN(CCO)C(=O)Nc1ccc(Br)cc1Cl`: the “% Inhibition” value was 12% and the Z score is listed as -1.33.

Turning to `Cc1nc(C(NC(=O)Cc2ccc(Cl)cc2)C(C)O)cs1` (stereo not drawn), the “% Inhibition” value is recorded as 10% and the Z score is reported as -1.54.

Regarding `O=C(NCc1ccc(N2CCOCC2)cc1)C1CCN(c2cnc3nccnc3c2)CC1`, the “% Inhibition” value is given as -14% and the Z score turned out to be 2.22.

For the compound `CCC1CCCC(NC(=O)N(C)C(C)CS(C)(=O)=O)C1` (stereo not drawn), the “% Inhibition” value is 3% and the Z score was -0.67.

With `C[C@@H](CCc1cccc(F)c1)C(=O)NS(=O)(=O)c1cccnc1`, the “% Inhibition” value was -5% and the Z score is 0.94.

In the case of `COc1ccc2nc3ccccc3nc2c1NC(=O)c1ccccc1Br`, the “% Inhibition” value is recorded as -3% and the Z score came to 0.3.

Take `CCc1noc(C)c1COc1ccccc1-c1nnc[nH]1`: the “% Inhibition” value is recorded as -3% and the Z score is listed as 0.44.

For `CNS(=O)(=O)CCn1ccnc1-c1ccc(-c2ccccc2)s1`, the “% Inhibition” value is recorded as -2% and the Z score was determined as 0.32.

Turning to `COc1cccc(C(=O)/N=C(\NCc2ccc3c(c2)OCO3)OCC(C)C)c1`, the “% Inhibition” value worked out at 2% and the Z score is on record as -0.25.
